Among all 48,000 compounds or so, about 450 (0.94%) were called active. Roughly 19% stayed inconclusive and do not appear here. The call rests on the fitted dose curve; in most records, active means well fitted inhibition curve with a large enough effect; inconclusive means small, poorly fitted or top-dose-only effect; inactive means no such curve, though single readings can be large or run the other way. The list shows a part of the results.
Potency means the concentration at half of the fitted maximal effect.

This experiment is described as follows: Primary qHTS for Identification of Small Molecule Inhibitors of Huntingtin Promoter Activity. Further: nearly all actives have a fitted effect of over 50% in size. The following applies: HEK293 HTT promoter firefly luciferase reporter (activity 0% = vehicle and -100% = no light), 24 h; series mostly up to 57.5 µM; activity change, negative = inhibition: at the top concentration. A digest of the protocol: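 Luminescence was read after Dual-Glo reagent and a 10 min room-temperature incubation. Values were normalized to vehicle (0% activity) and zero RLU (-100% activity). Reporter HEK293 cells had been exposed to compounds (up to 57.5 uM final) for 24 h.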
In general terms: qHTS replaces the single test concentration by a dilution series.
For the compound `Cc1nc(-c2ccc(Cl)cc2)sc1CCNC(=O)C(=O)Nc1ccc2c(c1)OCO2`, the “activity change, negative = inhibition” value was inactive: -21.7%.

Turning to `CCOC(=O)c1cccc(NC(=O)Cn2ncc3c(=O)oc4ccccc4c32)c1`, the “activity change, negative = inhibition” value was inactive: 3.25%.

Turning to `Cn1c(=O)c2c(nc(SCC(=O)Nc3ccccc3F)n2Cc2ccccc2F)n(C)c1=O`, the “activity change, negative = inhibition” value is inactive: 8.54%.

As to `Cc1ccc(C(=O)c2oc3ccccc3c2NC(=O)COc2ccc(Cl)c(C)c2)cc1`, the “activity change, negative = inhibition” value was inactive: 2.07%.

As to `COc1cc(C2CC(=O)Nc3cc4c(cc32)OCO4)cc(OC)c1O` (configuration not stated), the “activity change, negative = inhibition” value is inactive: -9.09%.

Turning to `COCCc1ccc(OCC(O)CNC(C)C)cc1` (configuration not stated), the “activity change, negative = inhibition” value was inactive: 11.9%.

Consider `CCc1cccc(CC)c1NC(=O)CN(C)S(=O)(=O)c1ccc2c(c1)n(C)c(=O)c(=O)n2C`, for which the “activity change, negative = inhibition” value is inactive: -18.7%.

As for `COc1cccc(CNC(=O)C2CCCN(c3nnc(-n4c(C)ccc4C)s3)C2)c1OC` (configuration not stated), the “activity change, negative = inhibition” value was inactive: -20%.

On to `O=C(Nc1ccc(OC(F)(F)F)cc1)c1cc(-c2ccc(Cl)cc2)on1`, for which the “activity change, negative = inhibition” value was inactive: -1.33%.

As to `Cc1ccc2nc(COc3ccccc3NC(=O)Nc3ccc(F)c(Cl)c3)cc(=O)n2c1`, the “activity change, negative = inhibition” value is inactive: 13%.

In the case of `CCSc1nc(-c2ccc(OC)cc2)nc2c1Cc1c(CO)cnc(C)c1O2`, the “activity change, negative = inhibition” value is inactive: -11.4%.

In the case of `Cc1cccc(NC(=O)CSc2cn(CC(=O)N3CCOCC3)c3ccccc23)c1C`, the “activity change, negative = inhibition” value is inactive: 2.99%.

With `Cc1ccc(-n2c3nc(=O)n(C)c(=O)c-3cc3ccccc32)c(C)c1`, the “activity change, negative = inhibition” value is inactive: -17.3%.

As for `CCC(=O)N1CCc2cc(Br)cc(S(=O)(=O)N3CCCC(C(=O)NCc4ccc(C)cc4)C3)c21` (configuration not stated), the “activity change, negative = inhibition” value was inactive: -9.29%.

On to `COc1cccc2cc(-c3nc4sc5c(c4c(=O)[nH]3)CCC(C(C)(C)C)C5)c(=O)oc12` (configuration not stated), for which the “activity change, negative = inhibition” value is inactive: 2.55%.

Turning to `COc1ccc(/C=C/c2nc(C#N)c(N3CCCCC3)o2)cc1OC`, the “activity change, negative = inhibition” value was inactive: -18.1%.

Regarding `CCc1ccc(NC(=O)Cn2ncn3c(cc4ccccc43)c2=O)cc1`, the “activity change, negative = inhibition” value was inactive: -0.944%.

Regarding `Cc1cc2c(cc1S(=O)(=O)NCc1ccc(F)cc1)OCCN2C`, the “activity change, negative = inhibition” value was inactive: -2.43%.

Take `CCCCN(Cc1cc2cc(C)ccc2[nH]c1=O)C(=O)c1cccc(Cl)c1`: the “activity change, negative = inhibition” value is inactive: -20.8%.

Consider `Cc1ccc(-n2ncc(C(=O)NCc3ccco3)c2C2CCN(C(=O)OC(C)(C)C)CC2)cc1`, for which the “activity change, negative = inhibition” value was inactive: -18.1%.

As to `CNC(=O)C1CCC(Cn2c(=O)c3sccc3n(CC(=O)N3CCC(C)CC3)c2=O)CC1` (configuration not stated), the “activity change, negative = inhibition” value was inactive: -7.63%.

For the compound `Cc1ccc2nc(Cl)c3cc(C(=O)N4CCCCC4)sc3c2c1`, the “activity change, negative = inhibition” value is inactive: 5.47%.

As to `COC(=O)c1cc(S(=O)(=O)NCC2CCN(Cc3cccc(F)c3)CC2)cn1C`, the “activity change, negative = inhibition” value is inactive: -24.6%.

On to `Cn1c(=O)c2c(-c3ccc(Cl)cc3)n(CCc3ccccc3)cc2n(C)c1=O`, for which the “activity change, negative = inhibition” value is inactive: -6.77%.

Regarding `Cc1cc(C)c(Cn2c(=O)n(CCCC(=O)NCc3ccc4c(c3)OCO4)c(=O)c3sccc32)c(C)c1`, the “activity change, negative = inhibition” value was inactive: -6.43%.

As for `OCc1ccccn1`, the “activity change, negative = inhibition” value is inactive: -10.1%.

`CN(C(=O)c1c(O)c2ccccc2n(C)c1=O)c1ccccc1`: the “activity change, negative = inhibition” value is inactive: -5.47%.

In the case of `COc1ccc(N(C(=O)Cn2nnc3ccccc32)C(C(=O)NCc2ccccc2)c2ccc(F)cc2)cc1` (configuration not stated), the “activity change, negative = inhibition” value was inactive: -12.1%.

Take `Cn1nnc2c(NCc3c(F)cccc3F)ncnc21`: the “activity change, negative = inhibition” value is inactive: -13.3%.

Turning to `COc1ccc(N2CCN(Cc3nc4c(c(=O)[nH]c(=O)n4C)n3Cc3ccccc3F)CC2)cc1`, the “activity change, negative = inhibition” value was inactive: -4.07%.

In the case of `COc1ccc(CCNC(=O)c2cc(=O)c3cc(C)c(C)cc3o2)cc1OC`, the “activity change, negative = inhibition” value is inactive: -23.1%.

Consider `Cn1c(=O)c2c(nc(SCC(=O)Nc3ccc(F)c(F)c3)n2Cc2ccccc2F)n(C)c1=O`, for which the “activity change, negative = inhibition” value was inactive: -11.5%.

With `O=C(NCCc1ccc(Cl)cc1)C1CCN(S(=O)(=O)c2ccc3[nH]ccc3c2)CC1`, the “activity change, negative = inhibition” value is inactive: -28.4%.

On to `COc1ccc(-c2noc(CNC(=O)COc3cccc(C)c3C)n2)cc1`, for which the “activity change, negative = inhibition” value is inactive: -2.86%.

Turning to `O=C(COCc1cc(-c2ccc3c(c2)OCO3)on1)Nc1cc(Cl)ccc1O`, the “activity change, negative = inhibition” value was inactive: -4.13%.

On to `CCOC(=O)c1c(C)oc2nc(C)nc(NCCCN3CCN(c4cc(C)ccc4C)CC3)c12`, for which the “activity change, negative = inhibition” value was inactive: 9.25%.

On to `CC(C)c1ccc(Nc2c(-c3ccccn3)nc3ccccn23)cc1`, for which the Potency was active: 25.1 µM.

For `CC(NC(=O)c1ccc2c(c1)sc1nc(-c3ccc(F)cc3)cn12)C12CC3CC(CC(C3)C1)C2` (configuration not stated), the “activity change, negative = inhibition” value is inactive: 7.03%.

As for `COc1cc(OC)c(NC(=O)CCc2c(C)nc3c4c(C)cc(C)nc4nn3c2C)cc1Cl`, the “activity change, negative = inhibition” value was inactive: -0.907%.

As for `COc1cccc(/C=C/c2nc(C#N)c(N3CCN(C)CC3)o2)c1`, the “activity change, negative = inhibition” value was inactive: -4.11%.

In the case of `N#Cc1cc2c(=O)n3ccccc3nc2n(-c2nnc(SCc3ccccc3Cl)s2)c1=O`, the “activity change, negative = inhibition” value is inactive: -10.7%.

Take `CCN(CCCNC(=O)Cn1ncc2c([nH]c3ccc(C)cc32)c1=O)c1ccccc1`: the “activity change, negative = inhibition” value is inactive: -1.68%.

For `CCC(Sc1nc2n[nH]c(C)c2c(=N)n1-c1ccccc1Cl)C(=O)N(CC)CC` (configuration not stated), the “activity change, negative = inhibition” value is inactive: -9.83%.

For the compound `Cc1cccc(NC(=O)c2cc3c(=O)n(Cc4cccnc4)ccc3nc2C)c1`, the “activity change, negative = inhibition” value was inactive: -4.83%.

Consider `CC1Cn2c(C(=O)NCc3ccccc3Cl)cc3cccc(c32)S1` (configuration not stated), for which the “activity change, negative = inhibition” value is inactive: -19.6%.

As to `Cc1ccc(S(=O)(=O)NCCc2nnc3ccc(SCC(=O)Nc4ccc(F)cc4F)nn23)cc1`, the “activity change, negative = inhibition” value was inactive: 1.04%.

On to `CCOC(=O)Cn1c(=O)n(CC2CCCO2)c2nc(-c3cc(OC)ccc3OC)nc(C(N)=O)c21` (configuration not stated), for which the “activity change, negative = inhibition” value is inactive: -13.8%.

Consider `O=C(NCC(c1cccs1)S(=O)(=O)c1cccs1)c1c(F)cccc1F` (configuration not stated), for which the “activity change, negative = inhibition” value is inactive: -15.8%.

Consider `CC(C)c1nn2c(=O)cc(COC(=O)c3ccc(NC(=O)c4cccs4)cc3)nc2s1`, for which the “activity change, negative = inhibition” value is inactive: -9.84%.

As for `COc1ccc(OC(=O)c2nc(SCc3ccccc3C)ncc2Cl)cc1`, the “activity change, negative = inhibition” value is inactive: 5.69%.

In the case of `Cc1ccccc1OCC(=O)Nc1ccccc1OCc1cc(=O)n2ccccc2n1`, the “activity change, negative = inhibition” value is inactive: 0.464%.

As to `COc1ccnc(CS(=O)c2nc3ccc(OC(F)F)cc3[nH]2)c1OC` (configuration not stated), the activity change, negative = inhibition entry was “inactive”.

As for `COc1cccc(CSc2nc3n(n2)C(CC(C)C)C(C(=O)Nc2ccccc2C)=C(C)N3)c1` (configuration not stated), the “activity change, negative = inhibition” value was inactive: -13.6%.

For `COc1ccc(C(=O)Nc2cccc(C(=O)OCc3cc(=O)n4c5c(sc4n3)CCCC5)c2)cc1`, the “activity change, negative = inhibition” value is inactive: -18.5%.

For the compound `Cc1ccc(CCNC(=O)CCCc2nnc3n(C)c(=O)c4sccc4n23)cc1`, the “activity change, negative = inhibition” value is inactive: -3.02%.

Take `Cc1cc(C)c2c(CC(=O)Nc3cc(C(F)(F)F)ccc3Cl)coc2c1`: the “activity change, negative = inhibition” value is inactive: -18.5%.

In the case of `COc1ccccc1-n1c(=O)n(C)c2c(C(N)=O)nc(-c3cccc(OC)c3OC)nc21`, the “activity change, negative = inhibition” value was inactive: -16.2%.

In the case of `CCCN1CCc2nc(N3CCN(C)CC3)ncc2C1`, the “activity change, negative = inhibition” value was inactive: -19%.

For the compound `CCN(CC)c1nn2c(=O)c(C(=O)NCCc3cccc(C)c3)cnc2s1`, the “activity change, negative = inhibition” value was inactive: -16.2%.

Regarding `Fc1cccc(CSc2ccc(-c3cccs3)nn2)c1`, the “activity change, negative = inhibition” value is inactive: 51.3%.

For `COc1ccc(S(=O)(=O)NCCc2csc3nc(-c4ccccc4)nn23)cc1OC`, the “activity change, negative = inhibition” value is inactive: -16.1%.

With `CCN1C(=O)C(O)(c2c[nH]c3ccccc23)c2cc(Br)ccc21` (configuration not stated), the “activity change, negative = inhibition” value is inactive: -24.9%.

Values taken from PubChem BioAssay AID1508623 (National Center for Advancing Translational Sciences (NCATS), 2021).
